This is an account of results in PubChem BioAssay AID1347073 (National Center for Advancing Translational Sciences (NCATS), 2019).

Each structure is given as a SMILES string. Out of some 45,000 compounds screened, about 200 (0.44%) were called active. Not shown: some 7% with an inconclusive outcome. Calls follow the shape of the dose curve; as a rule, active = well fitted activation curve with a large enough effect; inconclusive = small, poorly fitted or top-dose-only effect; inactive = no such curve, though single readings can be large or run the other way. Some of the results follow.

The assay is described as follows: qHTS of TDP-43 Inhibitors: NCGC Sytravon Library Screen. Also: 0% is about no effect; nearly all actives have a fitted effect of over 55% in size. To be noted: yeast TDP-43 toxicity rescue, BacTiter-Glo growth, 24 h; series mostly up to 46.1 µM; growth rescue (activation): at the top concentration. Summed up:
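TDP-43-expressing yeast, pregrown in raffinose, seeded at OD600 0.02 in galactose medium with compound for 24 hr at 30 deg C. Growth read by BacTiter-Glo luminescence, so rescue of toxicity appears as activation.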
Consider `Cc1cc(Oc2ccc(OCC(N)=O)nn2)nc(Cl)n1`, for which the “growth rescue (activation)” value was inactive: 2.81%. `CC(C(=O)O)n1cc(Cl)cn1` (centres undefined): the “growth rescue (activation)” value is inactive: -26.7%. As for `CCn1c(SCC(=O)NNC(=O)c2ccc(C)cc2)nnc1C(C)C`, the “growth rescue (activation)” value is inactive: -1.9%. Consider `COc1cc2[nH]c3c(=O)n(CCN4CCOCC4)cnc3c2cc1OC`, for which the “growth rescue (activation)” value was inactive: -11.9%.

Consider `CN(Cc1ccccc1)C(=O)CN1C(=O)c2ccc([N+](=O)[O-])cc2C1=O`, for which the “growth rescue (activation)” value was inactive: -1.16%.

On to `Cc1cc(C)c(NC(=O)COC(=O)C2CCCO2)c(C)c1` (centres undefined), for which the “growth rescue (activation)” value was inactive: -1.97%. The value for `COc1cc(C(=O)N/N=c2/sc3ccccc3n2C)cc(OC)c1OC` was inactive: 5.27%. The value for `Cc1c(O)ccc2c(=O)c(-c3nncn3-c3ccccc3)coc12` was inactive: -1.96%; that for `CSCC[C@H](NC(=O)NCCc1ccc(F)cc1)C(=O)O` was inactive: 3.16%. For the compound `Cc1cc(C)cc(OCC(=O)Nc2ccccc2C(=O)N2CCOCC2)c1`, the “growth rescue (activation)” value was inactive: -1.39%.

Turning to `Cn1cnnc1SCC(=O)Nc1cc(S(=O)(=O)N2CCCCC2)ccc1Cl`, the “growth rescue (activation)” value was inactive: 8.37%. Take `Cc1ccc(NC(=O)Cn2cnc3cc([N+](=O)[O-])ccc3c2=O)c(Cl)c1`: the “growth rescue (activation)” value is inactive: 11.7%. For the compound `CCCC(C(=O)NCc1ccco1)N(CC1CCCO1)C(=O)CNS(=O)(=O)c1ccc(F)cc1` (centres undefined), the “growth rescue (activation)” value is inactive: 6.03%. On to `CC(C)CNc1nc(NC(C)(C)C)nc(Oc2ccc(=O)[nH]n2)n1`, for which the “growth rescue (activation)” value is inactive: 5.67%. With `Cc1cc2cccc(C)c2nc1SCC(=O)NC1CCCCC1`, the “growth rescue (activation)” value was inactive: 10.8%. Take `CCCCN(C)C(=O)Cn1nc(-c2ccc(Cl)cc2)ccc1=O`: the “growth rescue (activation)” value is inactive: 1.09%. `Cc1ccc(C)c(S(=O)(=O)Nc2ccccc2C(=O)Nc2ccc(S(=O)(=O)Nc3ncccn3)cc2)c1`: the “growth rescue (activation)” value was inactive: -10.3%. With `COc1ccc(C(=O)NC(=S)NNC(=O)c2ccc(O)cc2)cc1[N+](=O)[O-]`, the “growth rescue (activation)” value was inactive: 22.5%. Consider `O=C(c1cc2ccc([N+](=O)[O-])cc2oc1=O)N1CCOCC1`, for which the “growth rescue (activation)” value was inactive: 11.9%. On to `CCSc1nnc2c(n1)OC(c1ccc(C)s1)Nc1ccccc1-2` (centres undefined), for which the “growth rescue (activation)” value was inactive: 9.59%. As to `CC(C)(C)c1ccc(C(=O)Nc2sc3c(c2C(=O)O)CCC3)cc1`, the “growth rescue (activation)” value is inactive: 6.04%. The value for `CCN(c1ccccc1)S(=O)(=O)c1ccc(OC)c(NC(=O)c2ccc(=O)[nH]c2)c1` was inactive: -18.2%; that for `COc1ccc(CNC(=O)CN(CCC(C)C)S(=O)(=O)c2ccc3c(c2)OCCO3)cc1` was inactive: 27.4%; that for `COc1ccc(C)cc1S(=O)(=O)N1CCN(C(=O)c2ncoc2-c2ccc(C)cc2)CC1` was inactive: 17.2%. On to `CCOC(=O)/C(=C/C=C1\Sc2cc(OCC)c(OCC)cc2N1CC)C(C)=O`, for which the “growth rescue (activation)” value was inactive: 6.34%. `CCC(=O)N=c1ccn(C2=Nc3ccccc3NC2=C(C#N)C#N)cc1`: the “growth rescue (activation)” value was inactive: -8.5%. Turning to `Cc1ccc(S(=O)(=O)N2CCOCC2)cc1C(=O)Nc1ccccc1F`, the “growth rescue (activation)” value was inactive: 18.4%. On to `CCNC(=S)N(CCc1ccc(OC)c(OC)c1)Cc1cc2cc(OC)ccc2[nH]c1=O`, for which the “growth rescue (activation)” value is inactive: 6.24%. For the compound `COc1ccc(CC(=O)Nc2nc(-c3ccc(OC)c(OC)c3)cs2)cc1OC`, the “growth rescue (activation)” value was inactive: 20.5%. For `COc1cc(CC(=O)Nc2ccc(Cl)c(C(F)(F)F)c2)cc(OC)c1OC` the value was inactive: 1.1%; for `O=C(Cn1c(=O)oc2cc(S(=O)(=O)N3CCCC3)ccc21)Nc1ccc(F)cc1F`, inactive: 5.36%.

With `CC(C)CCN(CC(=O)NCc1ccc(F)cc1)S(=O)(=O)c1ccccc1F`, the “growth rescue (activation)” value is inactive: 9.34%.

As to `O=C(Cc1ccccc1[N+](=O)[O-])N1CCN(c2ccccc2F)CC1`, the “growth rescue (activation)” value was inactive: 21.1%. Regarding `Cc1cccc(CCN(C(=O)c2snc(C(N)=O)c2N)C(C(=O)NCC2CCCO2)c2ccc(F)cc2)c1` (centres undefined), the “growth rescue (activation)” value is inactive: 8.3%. For the compound `Nc1nonc1-c1nc2ccccc2n1CC(=O)Nc1ccccc1`, the “growth rescue (activation)” value was inactive: -4.46%. Take `Cc1cc(=O)[nH]c(N/N=C/c2ccc(N(C)C)cc2)n1`: the “growth rescue (activation)” value is inactive: -17.3%. Consider `CCOc1cc(Cl)c(S(=O)(=O)NCCCN2CCOCC2)cc1Cl`, for which the “growth rescue (activation)” value was inactive: -8.89%. On to `COc1ccc(CCNC(=O)CSc2n[nH]c(N)n2)cc1`, for which the “growth rescue (activation)” value was inactive: -4.58%. For `O=Cc1c(Cl)nc2ccccn2c1=O` the value was inactive: 0.242%; for `O=C1Nc2c(Br)cc(Br)c3cccc1c23`, inactive: 3.59%. For the compound `O=C(CCSCc1ccc(Cl)cc1)NCCC1=CCCCC1`, the “growth rescue (activation)” value was inactive: 17.1%. For `O=C(Cc1ccccc1Cl)Nc1nc2ccccc2[nH]1`, the “growth rescue (activation)” value is inactive: 7.77%. For `CCOC(=O)c1oc2cc(O)ccc2c(=O)c1-c1csc(C)n1`, the “growth rescue (activation)” value was inactive: 3.74%.

As to `COc1cc(C(C)=O)ccc1OCC(O)CN1CCN(c2c(C)cccc2C)CC1` (centres undefined), the “growth rescue (activation)” value was inactive: -4.36%. In the case of `COc1cc(NC(=O)c2ccccc2[N+](=O)[O-])c(C(=O)O)cc1OC`, the “growth rescue (activation)” value was inactive: 6.91%.

For the compound `CC(C)c1cc(C(=O)NNC(=S)NCc2ccco2)c(O)c(C(C)C)c1`, the “growth rescue (activation)” value is inactive: 33.4%. On to `CC1(C)CC(N2CCC(=O)N(C3CC(C)(C)NC(C)(C)C3)C2)CC(C)(C)N1`, for which the “growth rescue (activation)” value is inactive: 23.7%.

As to `CCOC(=O)N1CCN(C(=O)CCNS(=O)(=O)c2ccccc2)CC1`, the “growth rescue (activation)” value was inactive: 13.4%. For the compound `COc1ccc(/C(C)=N/NC(=O)CNC(=O)c2ccco2)cc1`, the “growth rescue (activation)” value is inactive: 6.37%. The value for `COc1ccccc1NC(=O)COc1ccc(/C=N/NC(=O)CSCc2cc(C)cc(C)c2)cc1` was inactive: 6.46%; that for `Cc1ccc(C2(C)NC(=O)N(CC(=O)Nc3cccnc3Cl)C2=O)cc1` (centres undefined) was inactive: -2.09%.

As to `O=C1Nc2ccc(F)cc2C12OCCO2`, the “growth rescue (activation)” value was inactive: -21%. In the case of `O=C(CCSCCc1ccccn1)Nc1ccc(Br)cc1F`, the “growth rescue (activation)” value is inactive: 2.22%. For `O=C(Cc1n[nH]c(=O)c2ccccc12)OCc1c(Cl)cccc1Cl` the value was inactive: -6.2%. For the compound `CCC(=O)NC(c1ccc(N(C)C)cc1)c1c(O)ccc2ccccc12` (centres undefined), the “growth rescue (activation)” value was inactive: 2.08%. Regarding `COc1ccccc1N1Cc2ccc(OC)c(OC)c2C1=O`, the “growth rescue (activation)” value was inactive: -9.45%. Take `Cc1ccc2[nH]c3c(NCCN4CCOCC4)ncnc3c2c1`: the “growth rescue (activation)” value is inactive: 22.6%. In the case of `CCNC(=O)COc1ccc(OCc2ccccc2)cc1`, the “growth rescue (activation)” value was inactive: 7.8%. As to `Cc1ccc(CN2C(=NC(=O)CCC(=O)O)SC3CS(=O)(=O)CC32)cc1` (centres undefined), the “growth rescue (activation)” value was inactive: 31.8%. For `COC(=O)c1ccc(NC(=O)CSc2nncn2-c2cccnc2)cc1` the value was inactive: -14.6%. With `CCCCN(CC)Cc1ccc(CNC(=S)Nc2ccc(C)cc2Cl)o1`, the “growth rescue (activation)” value is inactive: -3.64%. With `CC(=O)c1ccc(S(=O)(=O)Nc2cc3c(cc2C(C)=O)OCO3)cc1`, the “growth rescue (activation)” value is inactive: 9.43%. For the compound `CN1/C(=C\C(=O)C[n+]2ccc3ccccc3c2)C(C)(C)c2ccccc21`, the “growth rescue (activation)” value was inactive: -4.86%. Regarding `CC(=O)N1CCN(S(=O)(=O)c2cccc(C(=O)Nc3ccc(F)c(F)c3)c2)CC1`, the “growth rescue (activation)” value was inactive: 7.78%. For the compound `Cc1cc(C)n(CCNC(=O)c2ccc3c(c2)OCO3)n1`, the “growth rescue (activation)” value was inactive: 1.05%. On to `COc1ccc([N+](=O)[O-])cc1NC(=O)c1ccc(C)o1`, for which the “growth rescue (activation)” value is inactive: 36.1%.

As for `CC(=O)NCCC(=O)Nc1nc(-c2c[nH]c3ccccc23)cs1`, the “growth rescue (activation)” value was inactive: 5.83%. Consider `O=C(O)c1ccc(-c2nc(-c3ccccc3Cl)cs2)cc1`, for which the “growth rescue (activation)” value is inactive: 7.57%. As for `COc1cc(OC)cc(C(=O)Nc2ccc3c(c2)OCCO3)c1`, the “growth rescue (activation)” value is inactive: 25.7%.
